The whole screen tested about 48,000 compounds, of which about 550 (1.1%) were called active. Not shown: some 4% with an inconclusive outcome. Rule as the data show it: active = potency below about 15 µM; inconclusive = mostly about 16 µM to 33 µM; inactive = weaker than that. The list shows a part of the results.
target: Lysosomal acid glucosylceramidase (Homo sapiens) (UniProt P04062); test: Glucocerebrosidase; conditions: purified enzyme, resorufin glucoside fluorescence (screen aimed at inhibitors), 20 min; series mostly up to 77 µM;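 also: the screen sought inhibitors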
UniProt P04062, sequence (P04062 whole entry, looked up): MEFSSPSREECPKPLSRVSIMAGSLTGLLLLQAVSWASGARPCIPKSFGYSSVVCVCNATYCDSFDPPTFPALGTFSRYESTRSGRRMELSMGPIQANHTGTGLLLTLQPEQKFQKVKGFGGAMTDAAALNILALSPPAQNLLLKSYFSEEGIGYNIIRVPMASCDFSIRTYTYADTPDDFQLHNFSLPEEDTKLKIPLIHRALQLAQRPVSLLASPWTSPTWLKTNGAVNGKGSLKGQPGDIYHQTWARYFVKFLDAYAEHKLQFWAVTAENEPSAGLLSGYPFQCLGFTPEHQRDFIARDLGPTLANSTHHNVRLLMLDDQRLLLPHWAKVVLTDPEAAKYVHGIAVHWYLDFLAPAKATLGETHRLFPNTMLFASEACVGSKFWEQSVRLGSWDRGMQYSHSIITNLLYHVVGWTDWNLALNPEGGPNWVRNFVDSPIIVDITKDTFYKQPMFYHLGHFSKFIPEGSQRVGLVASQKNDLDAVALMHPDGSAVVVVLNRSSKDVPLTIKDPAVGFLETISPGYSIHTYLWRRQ
Outline: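 Normal human glucocerebrosidase (0.2 nM final) was assayed with resorufin β-D-glucopyranoside (30 uM final) in 50mM citric acid/KH2PO4, 10mM sodium taurocholate, 0.01% tween-20, pH 5.9. Compounds were titrated; fluorescence (Ex 548, Em 600) read after 20 min at RT.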
Potency is read from the fitted curve at half-maximal effect.

Potency, inactive:
COC(=O)c1ccc(OC(=O)C2CC(=O)N(c3cccc(C)c3)C2)cc1 (stereo unspecified) > 76.9 µM
COc1ccc(OC)c(NC(=O)c2cc(-c3cc(Cl)ccc3O)n[nH]2)c1 > 76.9 µM
COc1ccc(CCNC(=O)COc2ccc(S(=O)(=O)N3CCOCC3)cc2)cc1OC > 76.9 µM
O=C(Nc1ccccc1C(F)(F)F)c1ccc(F)c(S(=O)(=O)N2CCOCC2)c1 > 76.9 µM
C=CCn1c(SCC(=O)NCC(=O)OCC)nnc1-c1ccccn1 > 76.9 µM
O=C(CSc1nnnn1C1CCCC1)Nc1ccc2c(c1)OCO2 > 76.9 µM
O=C(CSc1nnc(-c2ccc3c(c2)OCCO3)o1)N1CCCC1 > 76.9 µM
COc1ccccc1-c1noc(-c2ccccc2C(=O)Nc2ccccc2)n1 > 76.9 µM
CN(c1ccc(C(=O)Nc2cccnc2)cc1)S(C)(=O)=O > 76.9 µM
C(=N\C(/N=C/c1ccco1)c1ccco1)/c1ccco1 > 76.9 µM
COc1ccc(C2(O)CCN(C(=O)c3c(F)cccc3F)CC2)cc1 > 76.9 µM
CCCc1cc(N2CCCC(C(=O)Nc3cc(Cl)ccc3OC)C2)n2ncnc2n1 (stereo unspecified) > 76.9 µM
O=C(c1ccc(F)cc1)N1CCN(C2CC3CCC2C3)CC1 (stereo unspecified) > 76.9 µM
C=C(C)CSc1nnc(-c2ccccc2)n1N > 76.9 µM
O=C(CCCOc1ccc(Cl)cc1)N1CCOCC1 > 76.9 µM
CCC(=O)Nc1ccc2nc(SCC(=O)N3CCCC3)sc2c1 > 76.9 µM
Cc1[nH]c2ccccc2c1C(c1ccccn1)N1CCC(C(N)=O)CC1 (stereo unspecified) > 76.9 µM
COC(=O)c1ccc2c(=O)n(Cc3ccco3)c(SCC(=O)Nc3ccccc3Cl)nc2c1 > 76.9 µM
CCCOc1ccc(C(=O)c2nc3c(n2O)CCCC3)cc1 > 76.9 µM
Cc1cc(C)n(-c2cccc3cccnc23)n1 > 76.9 µM
COc1ccc(C(=O)N(CC(=O)NC(C)(C)C)c2ccc3c(c2)OCCO3)cc1OC > 76.9 µM
COC(=O)c1ccccc1S(=O)(=O)NC(=O)c1ccccc1 > 76.9 µM
O=C(NC1CCCCC1)C(c1cccs1)N(Cc1cccs1)C(=O)c1ccco1 (stereo unspecified) > 76.9 µM
COc1ccc(-c2cc(C(F)(F)F)n3nc(C(=O)N4CCOCC4)nc3n2)cc1 > 76.9 µM
Cc1ccc(-n2nc(C)c3c2OC(N)=C(C#N)C3c2cccs2)cc1 (stereo unspecified) > 76.9 µM
Nc1nc(CN2CCOCC2)cs1 > 76.9 µM
O=S(=O)(c1ccc(S(=O)(=O)N2CCN(Cc3ccccc3)CC2)cc1)N1CCOCC1 > 76.9 µM
Cc1nc2c(C(=O)NCc3ccccc3)c[nH]n2c(=O)c1Cl > 76.9 µM
CC(=O)c1ccc(Oc2cc(C)nc(-n3nc(C)cc3C)n2)cc1 > 76.9 µM
Cc1cc(=O)n(CC=C(Cl)Cl)c2ccccc12 > 76.9 µM
CCOc1cc(N2CCOCC2)c(OCC)cc1NC(=O)COc1cccc2cccnc12 > 76.9 µM
COC(=O)C1=C(C)OC(N)=C(C#N)C1c1c(C)nn(-c2ccccc2)c1Cl (stereo unspecified) > 76.9 µM
Cc1ccc(=O)n(C(C(=O)NCc2ccco2)C(=O)c2ccc(F)cc2)c1 (stereo unspecified) > 76.9 µM
Cc1ncc(CO)c2c1OC(C)(C)OC2 > 76.9 µM
O=c1n(-c2cccc(Cl)c2)c(=O)n2n1CCC2 > 76.9 µM
CSc1nc2cc(S(=O)(=O)N3CCOCC3)ccc2s1 > 76.9 µM
COc1ccc(Nc2nc3ccccc3c(=O)s2)c(OC)c1 > 76.9 µM
Cc1cccc(C)c1NC(=O)CSc1nnc([C@H](C)NC(=O)OC(C)(C)C)o1 > 76.9 µM
OC(COc1ccc2ccccc2c1)CN1CCOCC1 (stereo unspecified) > 76.9 µM
CCOC(=O)c1cc2oc(C(c3nnnn3C3CCCCC3)N3CCOCC3)cc2[nH]1 (stereo unspecified) > 76.9 µM
CCN(C(=O)CSc1nc2nc(C)cc(C)n2n1)c1ccccc1 > 76.9 µM
O=C(O)c1ccc(CSc2n[nH]c(-c3ccco3)n2)cc1 > 76.9 µM
O=C(CCC1CCCCC1)Nc1c2c(nn1-c1ccc(F)cc1)CS(=O)C2 (stereo unspecified) > 76.9 µM
CCC(c1nnnn1CCC(C)C)N1CCC(C(N)=O)CC1 (stereo unspecified) > 76.9 µM
Nc1cc(=O)nc(SCC(=O)NC2CCCCC2)n1-c1ccccc1 > 76.9 µM
COc1ccc(N2CCN(C(=O)c3ccc(OCC4CCCO4)cc3)CC2)cc1 (stereo unspecified) > 76.9 µM
CC(C)(C)n1ncc2c(=O)n(CC(=O)Nc3ccc4c(c3)OCCO4)cnc21 > 76.9 µM
COCCNC(=O)c1ccc(N(C)S(=O)(=O)c2ccc(OC)c(OC)c2)cc1 > 76.9 µM
CC(C)N(C(=O)N1CCC(c2nc(-c3ccncc3)no2)CC1)C(C)C > 76.9 µM
Cn1c(SCC(=O)N2c3ccccc3Sc3ccccc32)nnc1-c1ccco1 > 76.9 µM
CCOc1ccc2nc(NCCO)[nH]c2c1
COCCOC(=O)C1=C(C)NC(=O)N(C(C)=O)C1c1ccc(Cl)cc1 (stereo unspecified) > 76.9 µM
Cc1ccc(Cn2nnc3c(=O)n(CC(=O)OCc4ccccc4)cnc32)cc1 > 76.9 µM
Cc1ccc(N2CC(C(=O)NCCc3ccc(S(N)(=O)=O)cc3)CC2=O)cc1 (stereo unspecified) > 76.9 µM
N#CC1=C(N)N(c2ccc(Oc3ccccc3)cc2)C(=O)C1 > 76.9 µM
OC1(c2ccc3c(c2)OCO3)CCN(Cc2ccccn2)CC1 > 76.9 µM
Cc1ccc(Cn2ccc(NC(=O)c3cc(-c4ccc(F)cc4)on3)n2)cc1 > 76.9 µM
Cc1nc2c(c(=O)n1Cc1ccccc1Cl)c1nc3ccccc3nc1n2Cc1ccco1 > 76.9 µM
COc1ccccc1NC(=O)C1=C(C)Nc2nc(CCCO)nn2C1c1ccc2c(c1)OCO2 (stereo unspecified) > 76.9 µM
O=C(CCNc1ccccc1)c1ccc2c(c1)OCO2 > 76.9 µM
CC1CCCC(NC(=O)CSc2nccn2C)C1C (stereo unspecified) > 76.9 µM
Cc1ccc(S(=O)(=O)NCCSc2nnnn2-c2cc(C)ccc2C)cc1 > 76.9 µM
CC(=O)Nc1cc2c(cc1NC(=O)c1cnccn1)OCCO2 > 76.9 µM
Cn1c(N2CCCCC2)nc2c1c(=O)[nH]c(=O)n2C > 76.9 µM
Cc1ccc(OCC(=O)Nc2ccc(N(C)C)cc2)cc1 > 76.9 µM
O=C(Cc1ccccc1)Nc1nc2ccccc2[nH]1 > 76.9 µM
COc1cccc(-n2nnc3c(=O)n(CC(=O)N4CCCCC4)cnc32)c1 > 76.9 µM
CC(C)Cn1cc(C(=O)N2CCOCC2)c2c3ccccc3n(C)c2c1=O > 76.9 µM
O=S(=O)(NCc1cn2ccsc2n1)c1ccc(Oc2ccccc2)cc1 > 76.9 µM
CN(C)CC(O)COc1cc2ccccc2cc1C(=O)N1CCCCC1 (stereo unspecified) > 76.9 µM
Cc1ccc(CNC(=O)CN2C(=O)COc3ccc(C)cc32)cc1 > 76.9 µM
CCCN(CCC)c1nc2ccccc2n2c(C)nnc12 > 76.9 µM
O=C(CCOc1ccccc1)NCc1ccccc1 > 76.9 µM
O=C(NCc1cccs1)C1CCN(S(=O)(=O)N2CCCC2)CC1 > 76.9 µM
Cc1cc(C)c2c(n1)nn1c(N3CCN(c4ccccc4)CC3)cc(C)nc21
COC(=O)c1sc(S(=O)(=O)N2CCN(c3ccccc3)CC2)c(C(=O)OC)c1C > 76.9 µM
O=C(Cc1n[nH]c(=O)c2ccccc12)OCC(=O)c1ccc2c(c1)OCCO2 > 76.9 µM
CCCC(=O)N1CCN(c2ccc(NC(=O)c3ccco3)cc2)CC1 > 76.9 µM
O=C(CN1CCN(Cc2ccccc2Cl)C1=O)N1CCCCCC1 > 76.9 µM
CCc1nnc(NC(=O)C2CCCN2C(=O)Nc2ccccc2OC)s1 (stereo unspecified) > 76.9 µM
O=c1c(F)cn(C2CCCO2)c(=O)n1Cc1ccccc1F (stereo unspecified) > 76.9 µM
Nc1c(C(=O)NCCN2CCOCC2)c2nc3ccccc3nc2n1-c1cccc(F)c1
CCOC(=O)CC(=O)Nc1cc(Cl)ccc1O > 76.9 µM
c1ccc(OCCCc2nc(-c3ccccn3)no2)cc1 > 76.9 µM
COc1cc(OC)c(C2=NOC(C(=O)Nc3cc(C)nn3-c3ccccc3)C2)cc1Cl (stereo unspecified) > 76.9 µM
CCCCN(C(=O)Cn1nnc2ccccc21)C(C(=O)NCc1ccco1)c1ccncc1 (stereo unspecified) > 76.9 µM
O=C(c1cccs1)N1CCN(Cc2nc3ccccc3c(=O)[nH]2)CC1 > 76.9 µM
O=C(Nn1cnc2ccccc2c1=O)c1ccccc1Cl > 76.9 µM
COc1ccc(S(=O)(=O)Nc2c(C)ccc3nsnc23)cc1OC > 76.9 µM
CC(=O)c1ccc(NC2c3ncccc3C(=O)N2Cc2ccc(F)cc2)cc1 (stereo unspecified) > 76.9 µM
c1ccc(Cn2c(-c3cccs3)nc3nc4ccccc4nc32)cc1 > 76.9 µM

From PubChem BioAssay AID360 (National Center for Advancing Translational Sciences (NCATS), 2006)
